Reference: the supplement of paper PMC12632987
Whole data set: some 4,500 sequences, median “median log2 fold change of GCK-ALFA target abundance (FLAG IP / Myc IP barcode read proportion)” near 0.078, cut for the lowest 2% near -0.6. The list shows a part of the results.

B1: GBRAP_78_6697 (protein)
chain: EVEELLEKALELLDQALKLSKQLPEDLRNEVTYHLVEAITDLEEAIEEGADLEELKEALEHLDKAIALVKANDTPLTQPLLKLLTEAKKLLEEAIKKLEE
B2: GBRAP_52_6342 (protein)
chain: SEERIRAVAEAIAAAIAAGDLDGAVELTRKAVKEFSREEVREMMRLTAELAVERLPDRPDLVMEAAFRIADVIEEELGDEVLADDFEAYTARLLVERQAA
B3: GBRAP_14_3847 (protein)
chain: VEELVKAVKETAEELAKFVKEVAPEKAEEIIAKVKELAEEIIKKIKEEKLNKEEVDELMEKFAEELAKYLKEKGYLSDTEIAAVKAHIISEGLLKLEEIE
B4: GBRAP_52_6275 (protein)
chain: MEEEAERLAEEFIRVALEGSEEEIREFARRLVEEKSEELIARVLEIVVEKAEELNAEEIEKLLEAVLILEGELEEAGRDPLPAQDAAARLAKLHEEKLKE
B5: GBRAP_128_3563 (protein)
chain: SVEEAVAKAEELLEKIKNSGPEEARKYAKELAELLAAASPEAREAITETILSRLPELSPEKLDILADVFAEARPAADPATAEALAEIQVEALNEREEKEE
B6: GBRAP_160_4144 (protein)
chain: SPELEKLMKEIKEIAEEALKLIEGETPEEAKTIAKVAFGEIVMLVDSSEAVSEETKDKVGAVADEAEATLDANPDLTVEEVKALLKEATEKILAILKEEK
B7: GBRAP_160_4666 (protein)
chain: MEELEKLMKELEEIAKEAVEMTKGQSHEERVAIIRVMKGEIILELEESKIATDEVVDYADELGDELIAYVAANPDLTEEELQELLDKMLKEIEEKLKEEL
B8: GBRAP_160_4703 (protein)
chain: SETAEKLKKFVEEEFEKAKELIKGESKEQRAIIVEGTIGEILMEFAENPEVTDELEDEVDEIGDELVEEILEDEDITDEELDELIDEAVEKMKEAIDKHL
B9: GBRAP_184_5231 (protein)
chain: KLLDVTVEAADAEELAAGLAAARAEAEAAGARLRLLVKVEKLTPEKAATLAAAIRELAAAGLLELVGVESSEPISDEIIDTLLAAADAAGVRLVIANPDI
B10: GBRAP_39_5684 (protein)
chain: EKKEEDEDTVSYLEGLAAAYLYETGISLEEAFERAKKILLKLAKEHPELKELIEKLIKLAEEKGEEAKLALIGVAVLVEQGTPLEKIKEDIERVINYFES
B11: GBRAP_186_5398 (protein)
chain: TEAELAGIDEAEALAKEVGADVLLVVKLEGDLESIKEAALREIEAAAAYSKEFGKKVVVGIITDNSEEDTEELRKIAEERVKELRKEEGVDIHVVVVNAP
B12: GBRAP_128_3193 (protein)
chain: SEAELEAMTEELIEIVKTKDEEEVEAAVRAVLAAIEAAGLDLVDAFTEIAEKVAESLDAENVEKFGRAAIAAAATIEGKGEELARLVEAIVLTEIEEKKE
B13: GBRAP_137_3637 (protein)
chain: PNVTITKETIDDLVKIEVEFDDPEKAEEVAELIEDVAVEKGALAISIEINEDGTLEAEIWVPKEKAEALIKALVERLKKEFNATVTIIDKDTGEVKTIKA
B14: GBRAP_128_3266 (protein)
chain: MNPEIVAYANEFVEKLINSDKEEAKKIAEELMEKLKTLSDEEVEQFVEEIEKNLDKLSVEHLEILADAAEENRDKFSPEKANLVAGLAVEALNVAEEKEE
B15: GBRAP_9_7134 (protein)
chain: REELVKKMAEIAKEMIEDIKEAVPELTEEQAEEFKKKVEDLKAELLADKTATPEEIAEKFKALIKEIEERVKKIVDPELAKIVEAIALTAIEEVDEAAEE
B16: GBRAP_160_4480 (protein)
chain: SEKVREAAEELRRDVEEVLEESKDLSPEQLTLAVAVEVGANLMEFSSEGKINDEQEDIVIEAMDRIRQLGKEKKDASVEEVKAEIRKIVEEMVRRILEAA
B17: GBRAP_184_5311 (protein)
chain: ATRHVVIEADTAEAAIAQIDAAVAAARAAGAKLALTLLLRNVDVEGFRAVADALAAARDAGLLEDALVHLLDEKSEEEIDAFVAAADAAGVRLVVALPEE
B18: GBRAP_160_4761 (protein)
chain: KEKLKKLKEEIEEIFEEHLEMLKEVPKEEAPTIVRGAMGEVLMEVFSSEAASEELEEKIGEIADRAEAEAEANRDAPVEYHIEILERAREEILKLIEEEI
B19: GBRAP_160_4003 (protein)
chain: SEEIKKLIEEIRALVEETKAWMEGLSPAERLTLVRGMVGEIIQLAIESPAVSDETEDKIAEIGDATVAEVEANADASLETWRAILDDMLAKIEKLIESDA

target: GABARAP, O95166; test: median log2 fold change of GCK-ALFA target abundance (FLAG IP / Myc IP barcode read proportion) (log2 ratio); each designed protein is fused to an ALFA-tag nanobody in HEK293 cells to bring the named protein to FLAG-tagged glucokinase (GCK); Myc marks an untargeted standard; higher = target protein stabilised (more abundant); conditions: target protein: 3xFLAG-MCP-GCK-ALFA reporter; HEK293 landing pad (RPLP)
How it was run: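 An ALFA-nanobody-fused binder library was recombined into HEK293 landing-pad cells and induced with 2 μg mL^−1 doxycycline. Cells were transfected with a plasmid expressing a FLAG-tagged target and a Myc-tagged standard. After 48 h, lysates underwent anti-FLAG and anti-Myc immunoprecipitation, and circular RNA barcodes were reverse transcribed, amplified and sequenced. Target abundance is the per-binder median log2 ratio of FLAG to Myc barcode read proportions. Barcodes needed ≥10^−7 proportion in both replicates, binders ≥3 barcodes per replicate, and a 10^−6 pseudocount was added; the two replicates were pooled.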

GABARAP, O95166, sequence (O95166 whole entry, the tested form may be a part): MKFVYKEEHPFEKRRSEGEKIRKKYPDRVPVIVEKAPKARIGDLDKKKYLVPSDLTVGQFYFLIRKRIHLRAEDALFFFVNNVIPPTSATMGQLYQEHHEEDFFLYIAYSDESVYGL

Binder | median log2 fold change
B1 | 0.0855
B2 | -0.225
B3 | 0.253
B4 | 0.0823
B5 | 0.232
B6 | 0.18
B7 | -1.11
B8 | -0.438
B9 | 0.203
B10 | 0.28
B11 | 0.0649
B12 | 0.286
B13 | -0.21
B14 | 0.0174
B15 | 0.169
B16 | 0.0283
B17 | -0.186
B18 | -0.11
B19 | 0.00203
